# From PubChem BioAssay AID1645886 (National Center for Advancing Translational Sciences (NCATS), 2021)
# Several values for one entry are separate records, joined by “and”; a condition that tells them apart may be missing. Equal values may be shown once. Among all 16,000 compounds or so, about 260 (1.6%) were called active. This list was built around the results that the source calls inconclusive (neither active nor inactive); the mix of calls is not that of the screen. The call rests on the fitted dose curve; in most records, active means well fitted inhibition curve with a large enough effect; inconclusive means small, poorly fitted or top-dose-only effect; inactive means no such curve, though single readings can be large or run the other way. Potencies beside an inconclusive call are fits to weak or partial responses and may not hold up. *1 amine or outer side, *2 acyl side, *3 side chain or, on linkers, in order; H or OH if unused. Where a SMILES comes first, the peptide text is derived from it. Bridges are numbered along the chain shown (N, C = ends). [ ]: non-standard residue; d: D form. The star is where a group is joined. X12 = NC1=N[C@@H]([C@H](N[*:1])C(=O)[*:2])C[C@H](O)N1; ΔAla(Z-3-ureido) = NC(=O)N/C=C(\N)C(=O)O; β3hOrn = NCCC[C@H](N)CC(=O)*; Dap = NC[C@H](N)C(=O)O
# Biological target: Rap guanine nucleotide exchange factor 4 (Homo sapiens) (UniProt Q8WZA2)
# UniProt Q8WZA2, sequence (Q8WZA2 whole entry, looked up): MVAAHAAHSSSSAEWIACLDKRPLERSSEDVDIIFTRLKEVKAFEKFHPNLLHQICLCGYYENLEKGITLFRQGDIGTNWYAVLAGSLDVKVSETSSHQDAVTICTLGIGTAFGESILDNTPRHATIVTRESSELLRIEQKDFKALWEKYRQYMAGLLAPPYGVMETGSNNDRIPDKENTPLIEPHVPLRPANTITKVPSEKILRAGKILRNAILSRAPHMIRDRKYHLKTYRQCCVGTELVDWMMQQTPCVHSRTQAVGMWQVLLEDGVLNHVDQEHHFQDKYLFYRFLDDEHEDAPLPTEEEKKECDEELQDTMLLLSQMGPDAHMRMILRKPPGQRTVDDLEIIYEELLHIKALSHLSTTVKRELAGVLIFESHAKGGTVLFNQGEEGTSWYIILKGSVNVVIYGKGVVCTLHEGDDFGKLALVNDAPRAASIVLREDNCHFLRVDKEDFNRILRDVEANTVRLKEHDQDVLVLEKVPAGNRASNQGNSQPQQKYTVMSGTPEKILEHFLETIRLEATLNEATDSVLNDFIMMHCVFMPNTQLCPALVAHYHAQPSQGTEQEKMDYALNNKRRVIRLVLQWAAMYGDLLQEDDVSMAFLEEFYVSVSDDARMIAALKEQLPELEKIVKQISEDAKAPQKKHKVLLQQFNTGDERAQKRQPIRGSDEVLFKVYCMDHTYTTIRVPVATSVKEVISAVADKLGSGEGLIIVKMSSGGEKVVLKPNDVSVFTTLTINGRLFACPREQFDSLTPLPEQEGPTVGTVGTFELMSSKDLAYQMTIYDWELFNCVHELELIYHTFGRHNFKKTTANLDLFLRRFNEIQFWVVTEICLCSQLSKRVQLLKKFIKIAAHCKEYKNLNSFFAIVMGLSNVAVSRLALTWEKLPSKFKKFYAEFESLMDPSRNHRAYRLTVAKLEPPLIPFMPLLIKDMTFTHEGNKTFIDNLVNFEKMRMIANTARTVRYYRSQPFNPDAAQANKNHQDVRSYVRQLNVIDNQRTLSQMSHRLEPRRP
# Assay: Validation qHTS for antagonist of cAMP-regulated guanine nucleotide exchange factor 4 (EPAC2); further: nearly all actives have a fitted effect of over 40% in size
# Conditions: EPAC2 Rap1B BODIPY-GDP exchange, fluorescence; series mostly up to 112 µM
# Procedure, shortened: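 Normalized against a 6.5 mM cAMP agonist control, compounds were tested on 100 nM EPAC2 exchanging Rap1B-bound BODIPY-GDP (250 nM) for 50 uM GDP. Fluorescence drop (ex 480, em 540 nm) was tracked at room temperature over 30 min at 5-min intervals.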
# Potency means the concentration at half of the fitted maximal effect; tags describe the fitted curve by direction and shape.
row,Compound,Potency
1,Cn1cccc1C(=O)N1CCC[C@@]2(CCN(Cc3cc(C(F)(F)F)cc(C(F)(F)F)c3)C2)C1,"inconclusive: 28.2 µM [inhibitor, partial curve, poor fit]"
2,CC[N+](C)(C)c1ccc(/C=C/c2ccncc2)cc1,"inconclusive: 89.1 µM [inhibitor, single point]"
3,CCCCC(C=O)NC(=O)C(CC(C)C)NC(=O)OCc1ccccc1 (configuration not stated),"inconclusive: 63.1 µM [inhibitor, partial curve, poor fit]"
4,COc1ccc(Cl)cc1-c1cc2c(c(OC)c1)OCCN(Cc1cccn1-c1nccs1)C2,"inconclusive: 100 µM [inhibitor, single point]"
5,O=c1c(CCc2ccccc2)nc2cnc(N3CCNCC3)nc2n1C1CC1,inactive
6,COc1ccc(CNc2ncncc2-c2ccccc2OC)c(OC)c1,"inconclusive: 50.1 µM [inhibitor, partial curve, poor fit]"
7,N#Cc1cccc(CN2CCC(=O)N([C@H](CO)Cc3ccccc3)CC2)c1,"inconclusive: 0.141 µM [inhibitor, full curve, poor fit]"
8,COCCN(C)C(=O)c1cnn(-c2ncc3c(n2)-c2ccccc2CCC3)c1C1CC1,"inconclusive: 20 µM [inhibitor, single point]"
9,C=CS(=O)(=O)N(Cc1ccccc1Br)[C@H](CO)CC(C)C,"inconclusive: 50.1 µM [inhibitor, partial curve, poor fit]"
10,COc1ccc2c(=O)c3ccccc3oc2c1,"inconclusive: 89.1 µM [inhibitor, single point]"
11,O=S(=O)(NCc1ccc(F)cc1)c1ccc(Br)cc1Br,"inconclusive: 50.1 µM [inhibitor, partial curve, poor fit]"
12,CC(C)CN1CC[C@@]2(CCCN(S(=O)(=O)c3ccccc3)C2)C1,inactive
13,COCc1c(C(=O)NC2CCCCC2)cnn1-c1nccc(-c2cc(C)sc2C)n1,"inconclusive: 0.562 µM [inhibitor, full curve, poor fit]"
14,CS(=O)(=O)N1CCC2(CCN(C(c3ccccc3)c3ccccc3)CC2)CC1,"inconclusive: 100 µM [inhibitor, single point]"
15,CCCSc1ccc2nc(NC(=O)OC)[nH]c2c1,"inconclusive: 15.8 µM [inhibitor, single point]"
16,COC(=O)c1c(OCc2ccccc2)cc(=O)n2c1CCN(Cc1cccc(C)n1)CC2,"inconclusive: 100 µM [inhibitor, single point]"
17,CC[N+](CC)(CC)c1ccc(/C=C/c2ccnc3ccccc23)cc1,"inconclusive: 5.62 µM [inhibitor, full curve, poor fit]"
18,Cc1c(C(=O)N2CC[C@@H]3CCCC[C@H]3C2)sc2ncnc(NCCc3ccccn3)c12,"inconclusive: 89.1 µM [inhibitor, single point]"
19,c1ncc(CC2CCNCC2)[nH]1,"inconclusive: 63.1 µM [inhibitor, partial curve, poor fit]"

row,Compound,Potency
1,Cc1cnc(CNc2ncnc3ccc(-c4ccc5c(c4)OCO5)cc23)cn1,"inconclusive: 63.1 µM [inhibitor, partial curve, poor fit]"
2,C/C(O)=C1\C(=O)[C@@H]2[C@H]3c4c[nH]c5cccc(c45)C[C@H]3C(C)(C)N2C1=O,"inconclusive: 89.1 µM [inhibitor, single point]"
3,O=C(Oc1cccc2cccnc12)c1ccccc1,"inconclusive: 6.31 µM [inhibitor, full curve]"
4,CCCCCCOc1ccc(C(=N)N(CCCC)CCCC)c2ccccc12,"inconclusive: 39.8 µM [inhibitor, partial curve]"
5,O=S(=O)(NCc1ccc(F)cc1)c1ccccc1Br,"inconclusive: 50.1 µM [inhibitor, partial curve, poor fit]"
6,Cc1cc(O)c2c(c1)C(=O)c1cc(O)cc(O)c1C2=O,"inconclusive: 39.8 µM [inhibitor, partial curve, poor fit]"
7,Cc1cccc(C)c1N(CCCc1cccnc1)C(=O)C(C)N (configuration not stated),inactive
8,CC(C)(C)CC(C)(C)N=C1Nc2ccccc2N[C@]12C[C@H]1CCCC(=O)N3CC[C@@H](C2)[C@@H]13,"inconclusive: 0.631 µM [inhibitor, full curve, poor fit]"
9,Cc1noc(C)c1-c1nccc(N(C)Cc2ccco2)n1,inactive
10,NCCC[C@H](N)CC(=O)N[C@H]1CNC(=O)[C@H]([C@H]2C[C@H](O)NC(N)=N2)NC(=O)/C(=C/NC(N)=O)NC(=O)[C@H](CO)NC(=O)[C@H](CO)NC1=O (β3hOrn-[Dap]SS[ΔAla(Z-3-ureido)][X12]; lactam 1-C),inactive
11,C/C=C1/C(=O)C[C@@H]2[C@H]3CCC4=CC(=O)CC[C@]4(C)[C@@H]3CC[C@]12C,"inconclusive: 44.7 µM [inhibitor, partial curve, poor fit]"
12,CS(=O)(=O)Nc1cccc(-c2cncnc2-n2ccnc2)c1,"inconclusive: 39.8 µM [inhibitor, single point]"
13,COc1ccc(C(C)C(=O)c2ccc(O)cc2O)cc1 (configuration not stated),"inconclusive: 50.1 µM [inhibitor, partial curve, poor fit]"
14,COc1ccccc1CCNc1ncnc2sc(C(=O)N3CCCN(C=O)CC3)c(C)c12,inactive
15,COc1cccc(Nc2ncc3nc(-c4ccc(Cl)cc4)c(=O)n(CCC#N)c3n2)c1,"inconclusive: 0.158 µM [inhibitor, full curve, poor fit]"
16,O=C(c1cc(C(F)(F)F)cc(C(F)(F)F)c1)N1CCC[C@@]2(CCN(c3ccncc3)C2)C1,"inconclusive: 56.2 µM [inhibitor, partial curve, poor fit]"
17,COc1ccc(CNc2ccnc(-c3cccc(NS(C)(=O)=O)c3)n2)c(OC)c1,"inconclusive: 89.1 µM [inhibitor, partial curve, poor fit]"
18,CN(C)c1ccc(/C=C/c2ccnc3c(-c4ccccc4)cccc23)cc1,inactive
19,CC(C)C1CCC(C(=O)N[C@H](Cc2ccccc2)C(=O)O)CC1 (some centres not stated),"inconclusive: 12.6 µM [inhibitor, partial curve, poor fit]"

row,Compound,Potency
1,CO[C@H]1C[C@@H]2CC[C@@H](C)[C@@](O)(O2)C(=O)C(=O)N2CCCC[C@H]2C(=O)O[C@H]([C@H](C)C[C@@H]2CC[C@@H](O)[C@H](OC)C2)CC(=O)[C@H](C)C=C(C)[C@@H](O)[C@@H](OC)C(=O)[C@H](C)C[C@H](C)/C=C/C=CC=C1C,"inconclusive: 20 µM [inhibitor, full curve]"
2,COc1cccc(-c2nc3cc4c(cc3cc2CN(C(=O)c2cc(C)nn2C)C2CC2)CCC4)c1OC,"inconclusive: 0.631 µM [inhibitor, full curve, poor fit]"
3,Cc1cccc(CNc2cc(-c3cccc(C#N)c3)ncn2)c1,"inconclusive: 56.2 µM [inhibitor, partial curve]"
4,O=C1C(SCCO)=C(SCCO)C(=O)c2ccccc21,"inconclusive: 89.1 µM [inhibitor, single point] and inconclusive: 20 µM [inhibitor, full curve, poor fit]"
5,COc1cc(C)c(CN2C[C@H](Sc3ccccn3)C[C@H]2C(=O)N(C)C)cc1C,"inconclusive: 79.4 µM [inhibitor, partial curve, poor fit]"
6,COc1cc(CN2CCC3(CCC(CNC(=O)c4ccccc4)O3)CC2)cc(OC)c1 (configuration not stated),inactive
7,CC(C)=CCOc1cc2oc(=O)ccc2cc1O,"inconclusive: 50.1 µM [inhibitor, partial curve, poor fit]"
8,CNc1nc(-c2ccc3c(c2)OCO3)nc2ccccc12,inactive
9,CC1(C)CCC2=C(O1)c1ccccc1C(=O)C2=O,"inconclusive: 56.2 µM [inhibitor, partial curve, poor fit] and active: 28.2 µM"
10,CC(=O)Oc1ccc2c(c1)CCC1C2CC[C@]2(C)C(OC(C)=O)CCC12 (some centres not stated),inactive
11,CON=C1C[C@]2(C[C@@H]3C[C@@H](C/C=C(\C)C[C@@H](C)/C=C/C=C4\CO[C@@H]5[C@H](O)C(C)=C[C@@H](C(=O)O3)[C@]45O)O2)O[C@H](/C(C)=C/C(C)C)[C@H]1C,"inconclusive: 6.31 µM [inhibitor, full curve, poor fit] and inconclusive: 50.1 µM [inhibitor, partial curve, poor fit]"
12,Cc1c(C(=O)N2CCCC2)sc2ncnc(NCCCN3CCOCC3)c12,"inconclusive: 0.891 µM [inhibitor, partial curve, poor fit]"
13,COCC(=O)Nc1cc(C(=O)NC2CCCc3ccccc32)c2c(c1)nc(-c1ccncc1)n2C (configuration not stated),inactive
14,CC(C)C(=O)Nc1ccc([N+](=O)[O-])c(C(F)(F)F)c1,"inconclusive: 25.1 µM [inhibitor, partial curve]"
15,C[C@@H](CSc1ccc(Br)cc1)CN1CC[C@H](C(C)(C)C)CCC1=O,"inconclusive: 39.8 µM [inhibitor, single point]"
16,CCOC(=O)/C=C/c1ccccc1S(=O)(=O)NC(C)(C)C,"inconclusive: 44.7 µM [inhibitor, full curve, poor fit]"
17,COc1c(C=O)c(O)cc2c1C(=O)c1ccccc1C2=O,"inconclusive: 63.1 µM [inhibitor, partial curve, poor fit]"
18,CCOC(=O)N1CCC(N2CCOc3ccc(CN4CCC(O)(c5cccnc5)CC4)cc3C2)CC1,active: 79.4 µM
19,CCOC(=O)Nc1ccc(NCc2ccc(F)cc2)nc1N,"inconclusive: 25.1 µM [inhibitor, partial curve, poor fit]"
